In PMC12820563:
Some of the results follow. The list includes weakly bound sequences.

target: T1, MBP-FoxP3dN (UniProt Q99JB6); test: PD-seq (MBP pull-down with sequencing); details: 20 mM Tris-HCl pH 7.5, 100 mM NaCl, 1.5 mM MgCl2, 0.4 uM protein, 0.1 uM dsDNA library, 30 min, room temperature, amylose pull-down; high values mean tight binding; double strand, one strand shown
T1 sequence: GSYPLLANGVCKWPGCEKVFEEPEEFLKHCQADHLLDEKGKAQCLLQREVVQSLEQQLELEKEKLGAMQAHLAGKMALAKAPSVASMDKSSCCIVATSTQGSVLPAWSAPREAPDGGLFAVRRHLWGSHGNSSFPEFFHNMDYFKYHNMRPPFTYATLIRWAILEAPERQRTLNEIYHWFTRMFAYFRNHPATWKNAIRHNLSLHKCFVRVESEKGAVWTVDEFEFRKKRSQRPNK

Which binding signal (RPM ratio (pull-down/input)) does the source give for “GATGATTGTTCTCCCAGCTGATGAATTGCATACGTCGAGTAAACAAATTTTCCTAATCTTTCTGTTCAAGCGCCATCTAC” here?
Its binding signal (RPM ratio (pull-down/input)) is 1.16.

“GATGATTGTTCTCCCAGCTGATGAATTCGCATGTTCGAGTAAACAAATTTTCCTAATCTTTCTGTTCAAGCGCCATCTAC” was tested. Which binding signal (RPM ratio (pull-down/input)) did it give?
The binding signal (RPM ratio (pull-down/input)) was 1.95.

How did the binding signal (RPM ratio (pull-down/input)) turn out when “GATGATTGTTCTCCCAGCTGATGAATTCTTACCTTCGAGTAAACAAATTTTCCTAATCTTTCTGTTCAAGCGCCATCTAC” was run?
Its binding signal (RPM ratio (pull-down/input)) is 0.238.

For “GATGATTGTTCTCCCAGCTGATGAATTTTGTCAATCGAGTAAACAAATTTTCCTAATCTTTCTGTTCAAGCGCCATCTAC”, which binding signal (RPM ratio (pull-down/input)) is on record?
Its binding signal (RPM ratio (pull-down/input)) is 0.939.

Which binding signal (RPM ratio (pull-down/input)) does the source give for “GATGATTGTTCTCCCAGCTGATGAATTCCTAGATTCGAGTAAACAAATTTTCCTAATCTTTCTGTTCAAGCGCCATCTAC” here?
Its binding signal (RPM ratio (pull-down/input)) is 0.206.

Which binding signal (RPM ratio (pull-down/input)) does the source give for “GATGATTGTTCTCCCAGCTGATGAATTAACAATGTCGAGTAAACAAATTTTCCTAATCTTTCTGTTCAAGCGCCATCTAC” here?
Its binding signal (RPM ratio (pull-down/input)) is 0.512.

“GATGATTGTTCTCCCAGCTGATGAATTAACGCGTTCGAGTAAACAAATTTTCCTAATCTTTCTGTTCAAGCGCCATCTAC” was tested. Which binding signal (RPM ratio (pull-down/input)) did it give?
Its binding signal (RPM ratio (pull-down/input)) is 1.52.

How did the binding signal (RPM ratio (pull-down/input)) turn out when “GATGATTGTTCTCCCAGCTGATGAATTGATTAAATCGAGTAAACAAATTTTCCTAATCTTTCTGTTCAAGCGCCATCTAC” was run?
Its binding signal (RPM ratio (pull-down/input)) is 0.244.

How did the binding signal (RPM ratio (pull-down/input)) turn out when “GATGATTGTTCTCCCAGCTGATGAATTGGTACCTTCGAGTAAACAAATTTTCCTAATCTTTCTGTTCAAGCGCCATCTAC” was run?
Its binding signal (RPM ratio (pull-down/input)) is 0.507.

How did the binding signal (RPM ratio (pull-down/input)) turn out when “GATGATTGTTCTCCCAGCTGATGAATTGTGTAGCTCGAGTAAACAAATTTTCCTAATCTTTCTGTTCAAGCGCCATCTAC” was run?
The binding signal (RPM ratio (pull-down/input)) was 2.51.

With “GATGATTGTTCTCCCAGCTGATGAATTATCTATGTCGAGTAAACAAATTTTCCTAATCTTTCTGTTCAAGCGCCATCTAC” as the sequence, how does the binding signal (RPM ratio (pull-down/input)) read?
Its binding signal (RPM ratio (pull-down/input)) is 0.418.

With “GATGATTGTTCTCCCAGCTGATGAATTGAGCGTGTCGAGTAAACAAATTTTCCTAATCTTTCTGTTCAAGCGCCATCTAC” as the sequence, how does the binding signal (RPM ratio (pull-down/input)) read?
Its binding signal (RPM ratio (pull-down/input)) is 3.03.

“GATGATTGTTCTCCCAGCTGATGAATTCCATAGGTCGAGTAAACAAATTTTCCTAATCTTTCTGTTCAAGCGCCATCTAC” was tested. Which binding signal (RPM ratio (pull-down/input)) did it give?
Its binding signal (RPM ratio (pull-down/input)) is 0.268.

How did the binding signal (RPM ratio (pull-down/input)) turn out when “GATGATTGTTCTCCCAGCTGATGAATTTCGGCAGTCGAGTAAACAAATTTTCCTAATCTTTCTGTTCAAGCGCCATCTAC” was run?
The binding signal (RPM ratio (pull-down/input)) was 0.398.

How did the binding signal (RPM ratio (pull-down/input)) turn out when “GATGATTGTTCTCCCAGCTGATGAATTGTACTCCTCGAGTAAACAAATTTTCCTAATCTTTCTGTTCAAGCGCCATCTAC” was run?
The binding signal (RPM ratio (pull-down/input)) was 0.526.

With “GATGATTGTTCTCCCAGCTGATGAATTTGTCATATCGAGTAAACAAATTTTCCTAATCTTTCTGTTCAAGCGCCATCTAC” as the sequence, how does the binding signal (RPM ratio (pull-down/input)) read?
Its binding signal (RPM ratio (pull-down/input)) is 4.27.

For “GATGATTGTTCTCCCAGCTGATGAATTGTCCTGTTCGAGTAAACAAATTTTCCTAATCTTTCTGTTCAAGCGCCATCTAC”, which binding signal (RPM ratio (pull-down/input)) is on record?
The binding signal (RPM ratio (pull-down/input)) was 0.433.

Which binding signal (RPM ratio (pull-down/input)) does the source give for “GATGATTGTTCTCCCAGCTGATGAATTAACGATATCGAGTAAACAAATTTTCCTAATCTTTCTGTTCAAGCGCCATCTAC” here?
Its binding signal (RPM ratio (pull-down/input)) is 0.471.

Which binding signal (RPM ratio (pull-down/input)) does the source give for “GATGATTGTTCTCCCAGCTGATGAATTCGGTTAGTCGAGTAAACAAATTTTCCTAATCTTTCTGTTCAAGCGCCATCTAC” here?
The binding signal (RPM ratio (pull-down/input)) was 1.31.

With “GATGATTGTTCTCCCAGCTGATGAATTGACAGGATCGAGTAAACAAATTTTCCTAATCTTTCTGTTCAAGCGCCATCTAC” as the sequence, how does the binding signal (RPM ratio (pull-down/input)) read?
Its binding signal (RPM ratio (pull-down/input)) is 0.291.

Which binding signal (RPM ratio (pull-down/input)) does the source give for “GATGATTGTTCTCCCAGCTGATGAATTCATTACATCGAGTAAACAAATTTTCCTAATCTTTCTGTTCAAGCGCCATCTAC” here?
Its binding signal (RPM ratio (pull-down/input)) is 0.562.

With “GATGATTGTTCTCCCAGCTGATGAATTAAATGGCTCGAGTAAACAAATTTTCCTAATCTTTCTGTTCAAGCGCCATCTAC” as the sequence, how does the binding signal (RPM ratio (pull-down/input)) read?
The binding signal (RPM ratio (pull-down/input)) was 0.417.

Which binding signal (RPM ratio (pull-down/input)) does the source give for “GATGATTGTTCTCCCAGCTGATGAATTTGGGCATTCGAGTAAACAAATTTTCCTAATCTTTCTGTTCAAGCGCCATCTAC” here?
The binding signal (RPM ratio (pull-down/input)) was 4.79.

How did the binding signal (RPM ratio (pull-down/input)) turn out when “GATGATTGTTCTCCCAGCTGATGAATTAGGGCGCTCGAGTAAACAAATTTTCCTAATCTTTCTGTTCAAGCGCCATCTAC” was run?
Its binding signal (RPM ratio (pull-down/input)) is 0.37.

For “GATGATTGTTCTCCCAGCTGATGAATTAAGTGCGTCGAGTAAACAAATTTTCCTAATCTTTCTGTTCAAGCGCCATCTAC”, which binding signal (RPM ratio (pull-down/input)) is on record?
The binding signal (RPM ratio (pull-down/input)) was 0.935.

With “GATGATTGTTCTCCCAGCTGATGAATTGAGGACCTCGAGTAAACAAATTTTCCTAATCTTTCTGTTCAAGCGCCATCTAC” as the sequence, how does the binding signal (RPM ratio (pull-down/input)) read?
Its binding signal (RPM ratio (pull-down/input)) is 0.228.

How did the binding signal (RPM ratio (pull-down/input)) turn out when “GATGATTGTTCTCCCAGCTGATGAATTCCCCGTTTCGAGTAAACAAATTTTCCTAATCTTTCTGTTCAAGCGCCATCTAC” was run?
The binding signal (RPM ratio (pull-down/input)) was 0.281.

How did the binding signal (RPM ratio (pull-down/input)) turn out when “GATGATTGTTCTCCCAGCTGATGAATTCGCCCGTTCGAGTAAACAAATTTTCCTAATCTTTCTGTTCAAGCGCCATCTAC” was run?
The binding signal (RPM ratio (pull-down/input)) was 0.332.

How did the binding signal (RPM ratio (pull-down/input)) turn out when “GATGATTGTTCTCCCAGCTGATGAATTGAGCGACTCGAGTAAACAAATTTTCCTAATCTTTCTGTTCAAGCGCCATCTAC” was run?
Its binding signal (RPM ratio (pull-down/input)) is 1.55.

Which binding signal (RPM ratio (pull-down/input)) does the source give for “GATGATTGTTCTCCCAGCTGATGAATTGACACCTTCGAGTAAACAAATTTTCCTAATCTTTCTGTTCAAGCGCCATCTAC” here?
The binding signal (RPM ratio (pull-down/input)) was 0.536.

For “GATGATTGTTCTCCCAGCTGATGAATTATAGTGGTCGAGTAAACAAATTTTCCTAATCTTTCTGTTCAAGCGCCATCTAC”, which binding signal (RPM ratio (pull-down/input)) is on record?
Its binding signal (RPM ratio (pull-down/input)) is 0.617.

How did the binding signal (RPM ratio (pull-down/input)) turn out when “GATGATTGTTCTCCCAGCTGATGAATTCACAGCCTCGAGTAAACAAATTTTCCTAATCTTTCTGTTCAAGCGCCATCTAC” was run?
Its binding signal (RPM ratio (pull-down/input)) is 0.33.

How did the binding signal (RPM ratio (pull-down/input)) turn out when “GATGATTGTTCTCCCAGCTGATGAATTTGCGTTTTCGAGTAAACAAATTTTCCTAATCTTTCTGTTCAAGCGCCATCTAC” was run?
Its binding signal (RPM ratio (pull-down/input)) is 2.69.

How did the binding signal (RPM ratio (pull-down/input)) turn out when “GATGATTGTTCTCCCAGCTGATGAATTATGCGCATCGAGTAAACAAATTTTCCTAATCTTTCTGTTCAAGCGCCATCTAC” was run?
The binding signal (RPM ratio (pull-down/input)) was 2.3.

How did the binding signal (RPM ratio (pull-down/input)) turn out when “GATGATTGTTCTCCCAGCTGATGAATTCGCAGGGTCGAGTAAACAAATTTTCCTAATCTTTCTGTTCAAGCGCCATCTAC” was run?
Its binding signal (RPM ratio (pull-down/input)) is 0.31.

Which binding signal (RPM ratio (pull-down/input)) does the source give for “GATGATTGTTCTCCCAGCTGATGAATTGGAAATCTCGAGTAAACAAATTTTCCTAATCTTTCTGTTCAAGCGCCATCTAC” here?
The binding signal (RPM ratio (pull-down/input)) was 0.256.

For “GATGATTGTTCTCCCAGCTGATGAATTCACAGGGTCGAGTAAACAAATTTTCCTAATCTTTCTGTTCAAGCGCCATCTAC”, which binding signal (RPM ratio (pull-down/input)) is on record?
The binding signal (RPM ratio (pull-down/input)) was 0.208.

How did the binding signal (RPM ratio (pull-down/input)) turn out when “GATGATTGTTCTCCCAGCTGATGAATTCCGGTCTTCGAGTAAACAAATTTTCCTAATCTTTCTGTTCAAGCGCCATCTAC” was run?
Its binding signal (RPM ratio (pull-down/input)) is 0.382.

How did the binding signal (RPM ratio (pull-down/input)) turn out when “GATGATTGTTCTCCCAGCTGATGAATTGCCGCAGTCGAGTAAACAAATTTTCCTAATCTTTCTGTTCAAGCGCCATCTAC” was run?
The binding signal (RPM ratio (pull-down/input)) was 0.77.

How did the binding signal (RPM ratio (pull-down/input)) turn out when “GATGATTGTTCTCCCAGCTGATGAATTGATTAATTCGAGTAAACAAATTTTCCTAATCTTTCTGTTCAAGCGCCATCTAC” was run?
Its binding signal (RPM ratio (pull-down/input)) is 0.365.
